Test results published in patent publication US12589158B2 (priority 2022, dated 2026).
For some of these results: For at least one compound, name, drawing or mass did not settle the structure. Some entries share one result that the patent states for a list of compounds.

What was measured:
Assay type in all cases: in vivo
[1] = tested on: db/db mice; test: Multiple administration experiment on db/db mice; details: s.c. every 3 days for 4 weeks, Mean ± SEM, 6 mice
[2] = tested on: db/db mice; test: Pharmacodynamics in db/db mice, single subcutaneous administration (blood glucose); details: single s.c. 10 nmol/kg
Experimental: The “inhibition of blood glucose AUC” as disclosed in the present invention is the reduction percentage of blood glucose AUC in the group taken the test compound as compared with the group taken the Vehicle. Inhibition of blood glucose AUC=(blood glucose AUCVehicle-blood glucose AUCtest compound)/blood glucose AUCVehicle.
In this study, 8-9 week old male db/db mice are used. The db/db mice are placed in an individual ventilated cage (IVC) facility with a controlled temperature (20-26° C.) and humidity (40-70%) and a controlled 12h: 12 h light-dark cycle. The mice received food and water ad libitum. Blood is sampled at the tail tip, and the fasting blood glucose is measured by a Roche blood glucose meter. The mice are randomly divided into groups according to the initial blood glucose and initial body weight (n=6/group), and each group had similar body weight and blood glucose.
After a single subcutaneous administration, the random blood glucoses are recorded at the set time point (0 to 120 hours, the recording of the random blood glucose is stopped until there is no difference between the random blood glucose of the compound and that of the vehicle group), and the daily body weight and food intake are also recorded. The data results are statistically analyzed using GraphPad Prism8, and the statistical differences among the groups are analyzed following a T-Test. Significant differences are identified at p<0.05.
Hypoglycemic Duration: the longest time during which the random blood glucose of the compound has a significant difference (P<0.05) vs. the vehicle group.

[3] = tested on: SD male rats; details: doses 1, 3 and 10 mg/kg
Experimental: 77 SD male rats (SPF grade) are selected and randomly divided into 10 groups based on body weight. Group 1 is the vehicle control group, including 5 animals. […] Group 5 to Group 7 are the groups administrated with the test substance 1; and Group 8 to Group 10 are the groups administrated with the test substance 2, each group including 8 animals, wherein 5 animals for primary test, and 3 animals for toxicokinetics test, and the administration dose is 1, 3 and 10 mg/kg respectively. Each of the above groups is continuously administered twice a week for 2 weeks (administrating at Day 1, Day 5, Day 8, Day 12 and Day 15).
During the experiment, the cage condition monitoring, detailed clinical observations, determination of the food consumption, determination of body weight, measurement of the blood biochemical and hematology indicator, investigation of the gross anatomy, weighing of the organ, studying on toxicokinetic are performed on all the groups of the animals.
Original data during each time period is tabulated. The average values and standard deviations and/or group change are calculated for each assay endpoint based on the group and sex. For each endpoint, the administrated group will be compared with the control group in the following aspect. A logarithmic conversion is performed to the endpoint data as desired prior to the start of the specific analyses.

SMILES | AUC 4-25 day Glu ([1]; 3 nmol/kg) [mmol·days/L] | D28 Fasting Blood Glucose ([1]; 3 nmol/kg) [mmol/L] | Serum TBIL ([1]; 3 nmol/kg) [µmol/L] | Serum TG ([1]; 3 nmol/kg) [mmol/L] | AUC 4-25 day Glu ([1]; 10 nmol/kg) [mmol·days/L] | D28 Fasting Blood Glucose ([1]; 10 nmol/kg) [mmol/L] | Serum TBIL ([1]; 10 nmol/kg) [µmol/L] | AUC 4-25 day Glu ([1]; 30 nmol/kg) [mmol·days/L] | D28 Fasting Blood Glucose ([1]; 30 nmol/kg) [mmol/L] | Serum TBIL ([1]; 30 nmol/kg) [µmol/L] | duration of drug effects longer than that of Tirzepatide [2] [h] | dose at which decrease of the body weight is observed after the first administration [3] [mg/kg]
CC[C@H](C)[C@H](NC(=O)C(C)(C)NC(=O)[C@H](Cc1ccc(O)cc1)NC(=O)[C@H](CC(=O)O)NC(=O)[C@H](CO)NC(=O)[C@@H](NC(=O)C(C)(Cc1ccccc1)NC(=O)[C@@H](NC(=O)CNC(=O)[C@H](CCC(=O)O)NC(=O)C(C)(C)NC(=O)[C@@H](N)Cc1ccc(O)cc1)[C@@H](C)O)[C@@H](C)O)C(=O)NC(C)(C)C(=O)N[C@@H](CC(C)C)C(=O)N[C@@H](CC(=O)O)C(=O)N[C@@H](CCCCN)C(=O)N[C@@H](CCC(N)=O)C(=O)N[C@@H](C)C(=O)N[C@@H](CCC(N)=O)C(=O)N[C@@H](C)C(=O)N[C@@H](CCC(=O)O)C(=O)N[C@@H](Cc1ccccc1)C(=O)N[C@H](C(=O)N[C@@H](CCCCNC(=O)COCCOCCNC(=O)COCCOCCNC(=O)COCCOCCNC(=O)CC[C@H](NC(=O)CCCCCCCCCCCCCCCCCCCCC(=O)O)C(=O)O)C(=O)N[C@@H](Cc1c[nH]c2ccccc12)C(=O)N[C@@H](CC(C)C)C(=O)N[C@@H](CC(C)C)C(=O)N[C@@H](CCCCN)C(=O)NCC(=O)NCC(=O)N1CCC[C@H]1C(=O)N[C@@H](CO)C(=O)N[C@@H](CO)C(=O)NCC(=O)N[C@@H](C)C(=O)N1CCC[C@H]1C(=O)N1CCC[C@H]1C(=O)N1CCC[C@H]1C(=O)N[C@@H](CO)C(=O)N[C@@H](CCCCN)C(N)=O)C(C)C (stereo partly shown) [P016] | 256.38 ± 22 | 10.42 ± 1.46 | 0.82 ± 0.13 | 1.21 ± 0.04 | 249.25 ± 41.42 | 12.5 ± 2.19 | 1.22 ± 0.28 | 163.98 ± 11.57 | 6.05 ± 0.41 | 0.73 ± 0.16 | 56 | ≥ 1
CC[C@H](C)[C@H](NC(=O)C(C)(C)NC(=O)[C@H](Cc1ccc(O)cc1)NC(=O)[C@H](CC(=O)O)NC(=O)[C@H](CO)NC(=O)[C@@H](NC(=O)C(C)(Cc1ccccc1)NC(=O)[C@@H](NC(=O)CNC(=O)[C@H](CCC(=O)O)NC(=O)C(C)(C)NC(=O)[C@@H](N)Cc1ccc(O)cc1)[C@@H](C)O)[C@@H](C)O)C(=O)NC(C)(C)C(=O)N[C@@H](CC(C)C)C(=O)N[C@@H](CC(=O)O)C(=O)N[C@@H](CCCCN)C(=O)N[C@@H](CCC(N)=O)C(=O)N[C@@H](C)C(=O)N[C@@H](CCC(N)=O)C(=O)N[C@@H](C)C(=O)N[C@@H](CCC(=O)O)C(=O)N[C@@H](Cc1ccccc1)C(=O)N[C@H](C(=O)N[C@@H](CCCCN)C(=O)N[C@@H](Cc1c[nH]c2ccccc12)C(=O)N[C@@H](CC(C)C)C(=O)N[C@@H](CC(C)C)C(=O)N[C@@H](CCCCNC(=O)COCCOCCNC(=O)COCCOCCNC(=O)CC[C@H](NC(=O)CCCCCCCCCCCCCCCCCCCCC(=O)O)C(=O)O)C(=O)NCC(=O)NCC(=O)N1CCC[C@H]1C(=O)N[C@@H](CO)C(=O)N[C@@H](CO)C(=O)NCC(=O)N[C@@H](C)C(=O)N1CCC[C@H]1C(=O)N1CCC[C@H]1C(=O)N1CCC[C@H]1C(=O)N[C@@H](CO)C(=O)N[C@@H](CCCCN)C(N)=O)C(C)C (stereo partly shown) [P017] | 303.78 ± 33.24 | 11.68 ± 1.7 | 0.88 ± 0.26 |  | 249.65 ± 47.65 | 11.95 ± 2.51 | 1.59 ± 0.07 | 294.96 ± 11.96 | 10.08 ± 0.79 | 1.11 ± 0.1 | 24 | 
